# Results published in the supplement of paper PMC11876631.
# ± gives the standard deviation of the averaged measurements. Laboratory Escherichia coli strains with one amino-acid change in an essential protein, pooled on minimal glucose agar with carbenicillin or gentamicin at twice the control MIC (plus kanamycin and chloramphenicol for the plasmids), 48 h. Fold change of barcode share against drug-free plates; higher = less susceptible. Active = above 20 in both replicates (the paper's putatively resistant). '<' = one read or none on drug, '>' = one read or none on a drug-free plate. Shares are relative, so most strains fall below 1 when a few take over. Listed are strains with at least 15 reads on both drug-free plates, and hits; most hits rest on fewer reference reads. Replicate rank correlation about 0.5. Edits are read from barcodes.
# B1: ftsL; numbered along this chain (parent)
# chain: MISRVTEALSKVKGSMGSHERHALPGVIGDDLLRFGKLPLCLFICIILTAVTVVTTAHHTRLLTAQREQLVLERDALDIEWRNLILEENALGDHSRVERIATEKLQMQHVDPSQENIVVQK
# B2: bioC; numbered along this chain (parent)
# chain: MATVNKQAIAAAFGRAAAHYEQHADLQRQSADALLAMLPQRKYTHVLDAGCGPGWMSRHWRERHAQVTALDLSPPMLVQARQKDAADHYLAGDIESLPLATATFDLAWSNLAVQWCGNLSTALRELYRVVRPKGVVAFTTLVQGSLPELHQAWQAVDERPHANRFLPPDEIEQSLNGVHYQHHIQPITLWFDDALSAMRSLKGIGATHLHEGRDPRILTRSQLQRLQLAWPQQQGRYPLTYHLFLGVIARE
# B3: thrA; numbered along this chain (parent)
# chain: MRVLKFGGTSVANAERFLRVADILESNARQGQVATVLSAPAKITNHLVAMIEKTISGQDALPNISDAERIFAELLTGLAAAQPGFPLAQLKTFVDQEFAQIKHVLHGISLLGQCPDSINAALICRGEKMSIAIMAGVLEARGHNVTVIDPVEKLLAVGHYLESTVDIAESTRRIAASRIPADHMVLMAGFTAGNEKGELVVLGRNGSDYSAAVLAACLRADCCEIWTDVDGVYTCDPRQVPDARLLKSMSYQEAMELSYFGAKVLHPRTITPIAQFQIPCLIKNTGNPQAPGTLIGASRDEDELPVKGISNLNNMAMFSVSGPGMKGMVGMAARVFAAMSRARISVVLITQSSSEYSISFCVPQSDCVRAERAMQEEFYLELKEGLLEPLAVTERLAIISVVGDGMRTLRGISAKFFAALARANINIVAIAQGSSERSISVVVNNDDATTGVRVTHQMLFNTDQVIEVFVIGVGGVGGALLEQLKRQQSWLKNKHIDLRVCGVANSKALLTNVHGLNLENWQEELAQAKEPFNLGRLIRLVKEYHLLNPVIVDCTSSQAVADQYADFLREGFHVVTPNKKANTSSMDYYHQLRYAAEKSRRKFLYDTNVGAGLPVIENLQNLLNAGDELMKFSGILSGSLSYIFGKLDEGMSFSEATTLAREMGYTEPDPRDDLSGMDVARKLLILARETGRELELADIEIEPVLPAEFNAEGDVAAFMANLSQLDDLFAARVAKARDEGKVLRYVGNIDEDGVCRVKIAEVDGNDPLFKVKNGENALAFYSHYYQPLPLVLRGYGAGNDVTAAGVFADLLRTLSWKLGV
# B4: pdxJ; numbered along this chain (parent)
# chain: MAELLLGVNIDHIATLRNARGTAYPDPVQAAFIAEQAGADGITVHLREDRRHITDRDVRILRQTLDTRMNLEMAVTEEMLAIAVETKPHFCCLVPEKRQEVTTEGGLDVAGQRDKMRDACKRLADAGIQVSLFIDADEEQIKAAAEVGAPFIEIHTGCYADAKTDAEQAQELARIAKAATFAASLGLKVNAGHGLTYHNVKAIAAIPEMHELNIGHAIIGRAVMTGLKDAVAEMKRLMLEARG
# Variants of: B1
# Experiment: barcode share on antibiotic plates over drug-free plates; higher = less susceptible
# Conditions: with Escherichia coli (laboratory strain); antibiotic: carbenicillin; 2× MIC (3.1 µg/mL)
# Experimental: (§1)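 A pool of E. coli strains, each edited to carry one amino-acid change in an essential protein, was grown for 48 h on minimal glucose agar with or without antibiotic; strain barcodes were sequenced; mean of two replicates.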
row,Variant,fold change of barcode share
1,I44Q,0.325 ± 0.079

# Same assay, conditions: with Escherichia coli (laboratory strain); antibiotic: gentamicin; 2× MIC (MIC 0.45 µg/mL)
row,Variant,fold change of barcode share
1,I44Q,< 0.00654

# Variants of: B2
# Experiment: as above
# Conditions: with Escherichia coli (laboratory strain); antibiotic: carbenicillin; 2× MIC (3.1 µg/mL)
# Experimental: as §1
row,Variant,fold change of barcode share
1,V136Q,0.461 ± 0.02
2,V136W,0.664 ± 0.34
3,V136P,0.617 ± 0.23
4,V136D,0.9968 ± 0.0092
5,L245A,0.181 ± 0.11
6,L35Q,0.469 ± 0.0077
7,L35A,0.346 ± 0.084
8,L35P,0.518 ± 0.0022
9,L35D,0.4904 ± 0.0018
10,L35W,0.551 ± 0.09
11,L126D,0.5811 ± 0.0013
12,L126W,0.423 ± 0.025
13,L126P,0.591 ± 0.063
14,L126A,0.452 ± 0.011
15,L126Q,0.535 ± 0.015
16,F138D,0.751 ± 0.088
17,W190P,0.265 ± 0.062
18,W190Q,0.478 ± 0.26
19,W190A,0.441 ± 0.11
20,L149D,0.758 ± 0.34
21,L149W,0.79176 ± 0.00067
22,L149Q,0.622 ± 0.031

# Same assay, conditions: with Escherichia coli (laboratory strain); antibiotic: gentamicin; 2× MIC (MIC 0.45 µg/mL)
row,Variant,fold change of barcode share
1,V136Q,< 0.0133
2,V136P,< 0.0157
3,V136D,< 0.015
4,L245A,< 0.00776
5,L245P,0.25 ± 0.33
6,L35Q,0.00613 ± 0.0043
7,L35A,0.00548 ± 0.0051
8,L35P,0.0097 ± 0.0085
9,L35D,0.00911 ± 0.0046
10,L35W,0.00809 ± 0.0081
11,L126D,0.0148 ± 0.0067
12,L126W,0.00913 ± 0.0023
13,L126P,0.017 ± 0.01
14,L126A,0.00939 ± 0.0024
15,L126Q,0.00498 ± 0.00032
16,F138D,0.0186 ± 0.0029
17,W190D,0.00786 ± 0.0062
18,W190P,< 0.00464
19,W190Q,< 0.00577
20,W190A,0.00887 ± 0.0058
21,L149P,< 0.00935
22,L149D,0.0155 ± 0.016
23,L149W,0.0163 ± 0.0072
24,L149Q,0.00502 ± 0.0017

# Variants of: B3
# Experiment: as above
# Conditions: with Escherichia coli (laboratory strain); antibiotic: carbenicillin; 2× MIC (3.1 µg/mL)
# Experimental: as §1
row,Variant,fold change of barcode share
1,V346D,1.79 ± 0.05
2,V346Q,0.507 ± 0.31
3,L348A,1.71 ± 1.1
4,L348P,1.57 ± 0.29
5,L348D,2.05 ± 0.088
6,F336D,1.85 ± 1.2
7,F336A,1.12 ± 0.5
8,F336W,0.914 ± 0.4
9,F336P,1.17 ± 0.26
10,F336Q,1.08 ± 0.51
11,F318Q,1.66 ± 0.32
12,F318A,0.918 ± 0.11
13,F318W,1.3 ± 0.0037
14,F318D,0.466 ± 0.21

# Same assay, conditions: with Escherichia coli (laboratory strain); antibiotic: gentamicin; 2× MIC (MIC 0.45 µg/mL)
row,Variant,fold change of barcode share
1,V346D,< 0.0159
2,V346Q,< 0.0146
3,L348A,0.0166 ± 0.014
4,L348P,0.0127 ± 0.0077
5,L348D,0.0188 ± 0.012
6,F336D,0.00729 ± 0.0029
7,F336A,0.0177 ± 0.0036
8,F336W,0.00602 ± 0.0032
9,F336P,0.082 ± 0.1
10,F336Q,0.00762 ± 0.0008
11,F318Q,< 0.0175
12,F318A,< 0.0057
13,F318W,0.014 ± 0.00096
14,F318D,< 0.014

# Variants of: B4
# Experiment: as above
# Conditions: with Escherichia coli (laboratory strain); antibiotic: carbenicillin; 2× MIC (3.1 µg/mL)
# Experimental: as §1
row,Variant,fold change of barcode share
1,V28P,0.547 ± 0.051
2,V28A,0.258 ± 0.048
3,V28Q,0.354 ± 0.044
4,V28W,0.248 ± 0.14
5,L93W,0.273 ± 0.036
6,L93A,0.308 ± 0.077
7,M73D,> 30.1 [active]
8,M73Q,0.467 ± 0.01
9,I42Q,> 28.5 [active]
10,F32W,0.283 ± 0.3
11,F32Q,0.328 ± 0.17
12,F32P,0.268 ± 0.051
13,F32D,0.327 ± 0.2
14,F32A,0.194 ± 0.14
15,I152A,0.303 ± 0.06
16,I152W,0.473 ± 0.34
17,V94Q,> 40.7 [active]
18,V94A,1.63 ± 1.1
19,V94P,> 28.2 [active]

# Same assay, conditions: with Escherichia coli (laboratory strain); antibiotic: gentamicin; 2× MIC (MIC 0.45 µg/mL)
row,Variant,fold change of barcode share
1,V28P,0.00721 ± 0.0016
2,V28A,< 0.00174
3,V28Q,0.00851 ± 0.0007
4,V28W,0.00374 ± 0.0011
5,L93W,< 0.00553
6,L93A,0.472 ± 0.64
7,M73A,0.00604 ± 0.0043
8,F32W,0.00907 ± 0.0053
9,F32Q,< 0.00803
10,F32P,< 0.00546
11,F32D,< 0.00384
12,F32A,< 0.00689
13,I152A,0.0117 ± 0.0001
14,I152W,< 0.02
